From PMC4336329 (PLoS ONE, 2015)
Hit rate of the full screen: of about 310,000 compounds, about 2,200 (0.71%) showed an effect of 50% or more. The effect is printed as a negative number. The list shows a part of the results.

Target: human ether-à-go-go-related gene (hERG) potassium channel (human, UniProt Q12809)
Assay: primary screen, population patch clamp on CHO cells stably expressing hERG
Experimental: Briefly, Chinese hamster ovary (CHO) cells stably expressing the hERG channel were dislodged from tissue culture flasks and dispensed into PPC plates. […] During the recording, background leak currents were estimated by a 100 ms step to -80 mV from an initial holding potential of -70 mV and subtracted from the subsequent current measurement. The campaign was conducted in two phases using slight differences in recording protocol. In the first phase, the initial voltage pulse used a 100 ms step to -30 mV from a holding potential of -70 mV, a 2 s conditioning step to +25 mV, and a 2 s test step to -30 mV. During the second phase of the screen, the potential during the conditioning step was raised to +45 mV. In both phases of the campaign, a secondary voltage pulse was applied using the same parameters as the second phase initial pulse. The initial and secondary pulses were applied in the absence of compound, and upon application of 1 μM and 10 μM test concentrations. Small molecule effects on hERG current density were quantified by […].

Chain of human ether-à-go-go-related gene (hERG) potassium channel (Q12809 whole entry, looked up): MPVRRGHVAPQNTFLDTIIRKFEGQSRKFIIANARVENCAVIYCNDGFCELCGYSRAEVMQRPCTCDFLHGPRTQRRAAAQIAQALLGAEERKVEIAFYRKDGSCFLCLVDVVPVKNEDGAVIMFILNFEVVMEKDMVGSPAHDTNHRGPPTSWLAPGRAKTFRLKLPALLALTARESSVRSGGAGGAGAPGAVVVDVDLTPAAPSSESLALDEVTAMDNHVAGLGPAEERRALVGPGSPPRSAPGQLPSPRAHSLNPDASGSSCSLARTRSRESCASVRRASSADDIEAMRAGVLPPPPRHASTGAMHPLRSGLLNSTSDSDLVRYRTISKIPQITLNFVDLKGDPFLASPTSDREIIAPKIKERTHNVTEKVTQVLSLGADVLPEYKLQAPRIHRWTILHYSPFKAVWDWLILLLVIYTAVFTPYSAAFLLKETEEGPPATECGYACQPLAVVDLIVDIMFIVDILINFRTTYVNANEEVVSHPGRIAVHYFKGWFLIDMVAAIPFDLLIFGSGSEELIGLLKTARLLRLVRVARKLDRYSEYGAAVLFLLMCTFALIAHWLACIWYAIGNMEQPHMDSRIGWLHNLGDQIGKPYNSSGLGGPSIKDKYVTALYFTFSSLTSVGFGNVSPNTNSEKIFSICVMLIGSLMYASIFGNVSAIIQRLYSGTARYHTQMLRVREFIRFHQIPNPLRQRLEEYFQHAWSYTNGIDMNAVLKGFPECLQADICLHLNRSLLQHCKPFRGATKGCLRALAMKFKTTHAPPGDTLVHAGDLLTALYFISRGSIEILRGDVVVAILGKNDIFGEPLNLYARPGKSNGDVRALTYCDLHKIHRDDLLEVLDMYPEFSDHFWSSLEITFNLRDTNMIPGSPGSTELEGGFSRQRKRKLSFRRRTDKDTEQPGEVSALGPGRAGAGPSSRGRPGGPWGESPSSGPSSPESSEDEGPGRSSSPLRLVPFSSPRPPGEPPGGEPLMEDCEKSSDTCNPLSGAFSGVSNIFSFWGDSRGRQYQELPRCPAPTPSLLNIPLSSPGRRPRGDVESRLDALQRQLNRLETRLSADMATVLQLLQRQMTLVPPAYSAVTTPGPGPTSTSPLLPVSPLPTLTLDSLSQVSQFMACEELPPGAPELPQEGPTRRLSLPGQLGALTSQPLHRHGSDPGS

SMILES | hERG current change (%, negative = inhibition) at 1uM [%]
Cc1ccc(C(=O)O)cc1NC(=S)NC(=O)c1ccc(-c2ccccc2)cc1 | 14.8
COC(=O)/C(=N/Nc1ccccc1C)Sc1nnc(C(O)c2ccccc2)n1-c1ccccc1 (stereo not drawn) | 11.3
C[C@H](NC(=O)c1nc[nH]c1C(=O)NCc1ccc(CNC(=O)OC(C)(C)C)cc1)C(=O)OC(C)(C)C | 11
CCOC(=O)COn1c(=O)c(-c2ccco2)[n+]([O-])c2ccccc21 | 3.36
Cc1cc(CNC(=O)COc2ccc(F)cc2Cl)cc(C)c1O | 10.7
COc1ccc(-c2c(C(F)(F)F)nn(C)c2NC(C)=O)cc1 | 4.59
CC(C)c1ccc(C(C(=O)NC2CCCC2)N(C(=O)c2csnn2)C2CC2)cc1 (stereo not drawn) | 8.62
CCC(=O)c1ccc(OC(=O)/C=C/c2cc(OC)c(OC)c(OC)c2)cc1 | 12.4
O=[N+]([O-])c1ccc(N2CCN(S(=O)(=O)c3ccc(Cl)cc3)CC2)cc1NCC1CCCO1 (stereo not drawn) | 2.52
COc1ccc(Cn2cccc(NC(=O)Nc3cccc(OC)c3)c2=O)cc1 | 8.91
O=C(Nc1ccccc1N1CCN(C(=O)c2ccccc2)CC1)c1cc2ccccc2o1 | 10.2
CC1CCCC(NC(=O)COC(=O)CCC2CCCC2)C1C (stereo not drawn) | 1.62
COc1ccc(/C=C/C(=O)c2ccccc2)c(OC)c1 | 3.3
COCCCNc1nc(=S)[nH]c2cc(OC)c(OC)cc12 | 2.14
Cn1c(SCC(=O)CC(=O)Nc2ccccc2)nnc1-c1ccc(O)cc1 | 1.98
O=C(CCl)Nc1ccc(S(=O)(=O)Nc2nccs2)cc1 | 15.7
Cc1nc2ccccc2n1CC(O)c1ccccc1 (stereo not drawn) | 14.5
CCOCCn1c(C(C)C)nc2ccccc21 | -3.06
COc1ccccc1OCC(=O)Nc1c2c(nn1-c1ccccc1)CS(=O)(=O)C2 | -4.85

SMILES | hERG current change (%, negative = inhibition) at 1uM [%]
COc1ccc(C)cc1C1=Nc2ccccc2C1(C)C | 13.4
Cc1ccc(-n2nc3c(=O)n(C(C)C(=O)NCCC4=CCCCC4)nc(C)c3c2C)cc1 (stereo not drawn) | 4.35
O=C(CSc1nnc(-c2ccc(F)cc2)o1)NC1CCCCC1 | 13.2
CC(=O)N1N=C(c2ccc(C)c([N+](=O)[O-])c2)OC1(C)C | 11.2
O=c1c2c([nH]n1-c1ccccc1)CCSC2 | 18
O=C(NNC(=O)c1cccs1)c1ccc(S(=O)(=O)N2CCCCC2)cc1 | -2
CCN(CC)C(=O)c1sc2nc(-c3cccs3)cc(-c3ccc(Cl)cc3)c2c1N | 17.2
CC(=O)N1CCN(CC(=O)Nc2c(Cl)cc(Cl)cc2Cl)CC1 | -26.6
O=[N+]([O-])c1ccccc1-c1nc(-c2ccc(Br)o2)no1 | 14.4
O=[N+]([O-])c1cccc(S(=O)(=O)[N-]c2nc3ccccc3nc2-n2cc[n+](Cc3ccccc3)c2)c1 | 2.29
O=C(Cn1nnc(-c2cccs2)n1)NCc1ccco1 | 13.2
O=C(Nc1cc(-c2nc3ncccc3o2)ccc1Cl)c1ccc2c(c1)OCO2 | 12.7
CC(=O)N1CCN(Cc2nc3cc(NC(=O)c4cccs4)ccc3n2C)CC1 | 12
Cc1ccc(C)n1-c1ccc(N2CCOCC2)c([N+](=O)[O-])c1 | 12.8
COc1ccc(N(CC(=O)NCc2ccccc2OC)S(=O)(=O)c2ccccc2)cc1 | 13
COC(CNc1ncnc2c1cnn2C)OC | 13.4
C#CCSc1nnc(-c2cccc3ccccc23)o1 | 5.47
C/C(CC(=O)Nc1ccc(Cl)cc1)=N\NC(=O)C(=O)NCCO | 10.7
CN(C)C(CNC(=O)c1cccc(C#N)c1)c1ccco1 (stereo not drawn) | -0.423

SMILES | hERG current change (%, negative = inhibition) at 1uM [%]
COc1ccc(OC)c(NC(=O)CNC(=O)Cn2ccc3ccccc3c2=O)c1 | 15.5
O=C(CN1C(=O)/C(=C\c2ccccc2Cl)Sc2ccccc21)NCCCN1CCOCC1 | 8.24
CCCNC1CCS(=O)(=O)C1.Cl (stereo not drawn) | 5.66
COC(=O)COc1ccc(C)cc1-n1nc2ccccc2n1 | 5.84
CC(C)c1ccccc1NC(=O)C1CC(=O)N(C2CCCC2)C1 (stereo not drawn) | 12.9
CCC1(CC)NC(=O)N(CC(=O)OCC(=O)NC(=O)c2ccccc2OC)C1=O | 14.7
CC(=O)n1cc([C@H]2C=C(C(=O)Nc3ccccc3)O[C@@H](OCCCCO)C2)c2ccccc21 | 1.76
Cc1ccc(CN2CCN(Cc3cn(C(C)C)c4ccccc34)CC2CCO)o1 (stereo not drawn) | -5.27
CCOc1ccc(NC(=S)NCC(c2cccnc2)N2CCOCC2)cc1 (stereo not drawn) | 9.05
Cc1ccc(-n2c(SCC(=O)N3CCCC3)nc3c(c2=O)SCC3)cc1 | 14.1
O=C1CNC(=S)N1CCc1ccc(Cl)cc1 | 12.3
Clc1ccc2[nH]c3c(NCCN4CCOCC4)ncnc3c2c1 | -2.76
Cn1c2c(c(=O)n(C)c1=O)C(c1ccc(F)cc1)C(C#N)=C(N)O2 (stereo not drawn) | 13.3
O=C(O)c1[nH]c2ccccc2c1NS(=O)(=O)Cc1ccccc1 | 6.53
C#CCn1cc[n+](CC(=O)N(C)C)c1.[Br-] | 11.8
COc1ccc(OC)c(-c2cc(C(=O)Nc3cc(C)n(Cc4ccc(Cl)cc4)n3)no2)c1 | 1.84
CCOc1ccc(Oc2c(/C=N/NC(=O)COc3ccccc3OC)c(C)nn2-c2ccccc2)cc1 | 15.8
S=c1nccc(-c2cccs2)[nH]1 | 6.42
O=C(CSc1nnc2c(Cl)cc(Cl)cn12)NC1CCS(=O)(=O)C1 (stereo not drawn) | -4.31
